Laboratory results from the supplement of paper PMC9588766.
Where a name gives a salt, the structure may show the parent alone. ± gives the standard deviation of the averaged measurements. Over roughly 2,000 compounds, “cell viability relative to DMSO control (compound alone)” has its median near 0.98; the lowest 2% begin near 0.23. The list shows a part of the results.

These molecules were tested on PDC-DUC18828 (assay: cell viability relative to DMSO control (compound alone) (fraction); PDC-DUC18828 is a patient-derived cholangiocarcinoma cell line; higher = less growth inhibition). Conditions: 1 µM; 72 h.
Description: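 Selleck Bioactive library screen in the patient-derived FGFR2-G3BP2 fusion-positive ICC cell line PDC-DUC18828 (500 cells/well). Each compound was tested at 1 uM alone, in triplicate, for 72 h. Viability was read by CellTiter-Glo and normalised to plate DMSO controls.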
In the case of `CN1CCC(=C2c3ccccc3CCc3cccnc32)CC1` [Azatadine dimaleate], the cell viability is reported as 0.791 ± 0.056. With `Nc1nc2ccc(OC(F)(F)F)cc2s1` [Riluzole] the cell viability was 1.1 ± 0.082. Work on `Cc1c(OCC(F)(F)F)ccnc1C[S@@+]([O-])c1nc2ccccc2[nH]1` [Dexlansoprazole] yielded a cell viability of 1.03 ± 0.023. Work on `CC[C@H]1OC(=O)[C@H](C)[C@@H](O[C@H]2C[C@@](C)(OC)[C@@H](O)[C@H](C)O2)[C@H](C)[C@@H](O[C@@H]2O[C@H](C)C[C@H](N(C)C)[C@H]2O)[C@](C)(O)C[C@@H](C)C(=O)[C@H](C)[C@H]2OC(=O)O[C@@]21C` [Erythromycin Cyclocarbonate] yielded a cell viability of 1.01 ± 0.047. `NC(=O)c1cn(Cc2c(F)cccc2F)nn1` [Rufinamide] gave a cell viability of 0.865 ± 0.021. With `Cc1cc(O)c2c(c1)C(=O)c1cccc(O)c1C2=O` [Chrysophanic Acid] the cell viability was 0.9325 ± 0.0033. Molecule `CC(C(=O)O)c1ccc(-c2ccccc2)c(F)c1` (stereo not given) [Flurbiprofen] has a cell viability of 0.938 ± 0.04. Molecule `C[C@H]1O[C@@H](O[C@H]2[C@@H](O)C[C@H](O[C@H]3[C@@H](O)C[C@H](O[C@H]4CC[C@@]5(C)[C@H](CC[C@@H]6[C@@H]5C[C@@H](O)[C@]5(C)[C@@H](C7=CC(=O)OC7)CC[C@]65O)C4)O[C@@H]3C)O[C@@H]2C)C[C@H](O)[C@@H]1O` [Digoxin] has a cell viability of 0.133 ± 0.0037. For `CC(NC(=O)C(Cc1ccccc1)NC(=O)OCc1ccccc1)C(=O)CF` (stereo not given), the cell viability was 0.93 ± 0.011. `C=CCc1cccc(/C=N/NC(=O)CN2CCN(Cc3ccccc3)CC2)c1O` gave a cell viability of 0.965 ± 0.033. Molecule `CC(C(=O)O)c1ccc2c(c1)[nH]c1ccc(Cl)cc12` (stereo not given) [Carprofen] has a cell viability of 1.02 ± 0.053. `O=C(Nc1cccc(C(F)(F)F)c1)Nc1cc(S(=O)(=O)NC2CC2)ccc1-c1ccsc1` was tested, and the cell viability was 0.9874 ± 0.0046. With `O=C1c2c(O)cccc2C([C@@H]2O[C@H](CO)[C@@H](O)[C@H](O)[C@H]2O)c2cc(CO)cc(O)c21` (stereo not given in full) [Aloin] the cell viability was 0.991 ± 0.044. For `Cc1ccccc1C(=O)Nc1ccc(C(=O)N2CCCC(O)c3cc(Cl)ccc32)c(C)c1` (stereo not given) [Tolvaptan], the cell viability was 0.984 ± 0.038. Work on `CN(C)C(=O)C(CCN1CCC(O)(c2ccc(Cl)cc2)CC1)(c1ccccc1)c1ccccc1` [Loperamide HCl] yielded a cell viability of 0.853 ± 0.027. `CCN(CC)CCNC(=O)c1c(C)[nH]c(/C=C2\C(=O)Nc3ccc(F)cc32)c1C` [Sunitinib] gave a cell viability of 1.01 ± 0.036. `CCN(CC)CCNC(=O)c1c(C)[nH]c(/C=C2\C(=O)Nc3ccc(F)cc32)c1C` [Sunitinib Malate] gave a cell viability of 1.03 ± 0.083. `COc1ccc(/C=C/C(=O)Nc2ccccc2C(=O)O)cc1OC` [Tranilast] was tested, and the cell viability was 1.03 ± 0.036. In the case of `CCOC(=O)C1=C(COCCN)NC(C)=C(C(=O)OC)C1c1ccccc1Cl` (stereo not given) [Amlodipine], the cell viability is reported as 0.972 ± 0.066. `Oc1ccc(/C=C/c2cc(O)cc(O)c2)cc1` [Resveratrol] was tested, and the cell viability was 1.06 ± 0.034. `Cc1ncc(CCCN(C)C)cc1Nc1ncc2c(n1)-c1ccc(C(F)(F)F)cc1NC(=S)C2` was tested, and the cell viability was 0.259 ± 0.017. Molecule `Cc1cc(/C=C/C#N)cc(C)c1Nc1ccnc(Nc2ccc(C#N)cc2)n1` [Rilpivirine] has a cell viability of 0.98 ± 0.057. In the case of `CCOc1cc2ncc(C#N)c(Nc3ccc(F)c(Cl)c3)c2cc1NC(=O)/C=C/CN(C)C` [Pelitinib (EKB-569)], the cell viability is reported as 0.793 ± 0.025. `Cc1c(N(C)C)c(=O)n(-c2ccccc2)n1C` [Amidopyrine] gave a cell viability of 1.02 ± 0.04. `COc1ccccc1OCC(O)CO` (stereo not given) [Guaifenesin] showed a cell viability of 1.02 ± 0.06. In the case of `Nc1nc(CC(=O)Nc2ccc(CCNC[C@H](O)c3ccccc3)cc2)cs1` [Mirabegron], the cell viability is reported as 0.992 ± 0.023. `CC[C@]1(O)C[C@H]2CN(CCc3c([nH]c4ccccc34)[C@@](C(=O)OC)(c3cc4c(cc3OC)N(C=O)[C@H]3[C@@](O)(C(=O)OC)[C@H](OC(C)=O)[C@]5(CC)C=CCN6CC[C@]43[C@@H]65)C2)C1` [Vincristine] showed a cell viability of 0.236 ± 0.014. With `CC(=O)[C@H]1CC[C@H]2[C@@H]3C=CC4=CC(=O)CC[C@@]4(C)[C@@H]3CC[C@]12C` [Dydrogesterone] the cell viability was 1.09 ± 0.025. `O=S(=O)(NCCSSCCNS(=O)(=O)c1cc(Cl)ccc1Cl)c1cc(Cl)ccc1Cl` showed a cell viability of 0.961 ± 0.03. Work on `Cc1cc(=O)[nH]c(=S)[nH]1` [Methylthiouracil] yielded a cell viability of 0.928 ± 0.052. In the case of `CN1[C@@H]2CC[C@H]1C[C@@H](OC(=O)c1c[nH]c3ccccc13)C2` [Tropisetron], the cell viability is reported as 0.993 ± 0.064. In the case of `Cc1cccc(C)c1OCC(C)N` (stereo not given) [Mexiletine HCl], the cell viability is reported as 0.945 ± 0.011. In the case of `OCCOCCN1CCN(C2=Nc3ccccc3Sc3ccccc32)CC1` [Quetiapine Fumarate], the cell viability is reported as 0.975 ± 0.031. `Cc1nc(Nc2cnn(C3CCNCC3)c2)nc2c1N(C)C(=O)c1cc3ccccc3cc1N2C` showed a cell viability of 1.01 ± 0.054. `CC1(C)S[C@@H]2[C@H](NC(=O)[C@H](N)c3ccc(O)cc3)C(=O)N2[C@H]1C(=O)O` [Amoxicillin] was tested, and the cell viability was 0.962 ± 0.058. For `CC1(C)S[C@@H]2[C@H](NC(=O)[C@H](N)c3ccc(O)cc3)C(=O)N2[C@H]1C(=O)O` [Amoxicillin Sodium], the cell viability was 1 ± 0.029. `Cc1cc(C(=O)NOCCO)c(Nc2ccc(I)cc2F)n(C)c1=O` was tested, and the cell viability was 0.559 ± 0.036. Molecule `COc1cccc2c1C(=O)c1c(O)c3c(c(O)c1C2=O)C[C@@](O)(C(=O)CO)C[C@@H]3O[C@H]1C[C@H](N)[C@H](O)[C@H](C)O1` [Doxorubicin (Adriamycin)] has a cell viability of 0.136 ± 0.015. For `O=C([C@@H](Cc1cccc(C(F)(F)F)c1)NS(=O)(=O)c1cc(F)c2c(c1)CCNC2)N1CCCC1`, the cell viability was 1.01 ± 0.05. For `Nc1nc(Cl)nc2c1ncn2[C@H]1C[C@H](O)[C@@H](CO)O1` [Cladribine], the cell viability was 0.382 ± 0.01. In the case of `O=C(C=Cc1ccccc1)NC(NC(=S)Nc1ccc(Cl)cc1)C(Cl)(Cl)Cl` (stereo not given), the cell viability is reported as 0.969 ± 0.023. `Fc1ccc(C(c2ccc(F)cc2)N2CCN(C/C=C/c3ccccc3)CC2)cc1` [Flunarizine 2HCl] was tested, and the cell viability was 1.07 ± 0.044. Molecule `Oc1ccc([C@H]2COc3cc(O)ccc3C2)cc1` [Equol] has a cell viability of 0.934 ± 0.0094. `O=c1cc(-c2cccc3c2Sc2ccccc2S3)oc(N2CCOCC2)c1` gave a cell viability of 1.05 ± 0.068. Molecule `Cc1ccc(Nc2c(F)cccc2Cl)c(CC(=O)O)c1` [Lumiracoxib] has a cell viability of 0.974 ± 0.022. With `CCCCC(=O)O[C@H]1CC[C@H]2[C@@H]3CCc4cc(O)ccc4[C@H]3CC[C@]12C` [Estradiol valerate] the cell viability was 0.965 ± 0.037. In the case of `Cc1nc2ccc(-n3ncc(C(=O)c4cc5ccccc5[nH]4)c3N)cc2[nH]1`, the cell viability is reported as 0.84 ± 0.02. With `N#Cc1c(O)c2c(-c3ccc(-c4ccccc4O)cc3)csc2[nH]c1=O` the cell viability was 0.977 ± 0.05. `Cc1[nH]c2ccccc2c1CCNC(=O)c1cccs1` showed a cell viability of 0.917 ± 0.053. `N=C(N)c1ccc(OCCCCCOc2ccc(C(=N)N)cc2)cc1` [Pentamidine] showed a cell viability of 1.04 ± 0.021. In the case of `CO/N=C(\C(=O)N[C@@H]1C(=O)N2C(C(=O)OCOC(=O)C(C)(C)C)=C(/C=C\c3scnc3C)CS[C@H]12)c1csc(N)n1` [Cefditoren Pivoxil], the cell viability is reported as 1.01 ± 0.032. In the case of `CCCc1cc(=O)[nH]c(=S)[nH]1` [Propylthiouracil], the cell viability is reported as 0.924 ± 0.042. `COc1ccc(CCN(C)CCCC(C#N)(c2ccc(OC)c(OC)c2)C(C)C)cc1OC` (stereo not given) [Verapamil HCl] showed a cell viability of 1.01 ± 0.053. With `Cc1onc(-c2ccccc2)c1-c1ccc(S(N)(=O)=O)cc1` [Valdecoxib] the cell viability was 1.042 ± 0.0045. For `O=C(Nc1ccccc1)c1cc([N+](=O)[O-])ccc1Cl`, the cell viability was 0.883 ± 0.081. `C=C1C(=O)O[C@@H]2/C=C(\C)CC/C=C(\C)CC[C@@H]12` [Costunolide] showed a cell viability of 0.953 ± 0.079. `C[C@]12CCC(=O)C=C1CC[C@@H]1[C@@H]2[C@@H](O)C[C@@]2(C)[C@H]1CC[C@]2(O)C(=O)CO` [Hydrocortisone] showed a cell viability of 0.93 ± 0.053. With `C=CC(=O)Nc1cccc(C)c1Nc1ncc2cc(-c3c(Cl)c(OC)cc(OC)c3Cl)ccc2n1` the cell viability was 0.795 ± 0.021. In the case of `O=C(CCc1ccc(O)cc1)c1c(O)cc(O)cc1O[C@@H]1O[C@H](CO)[C@@H](O)[C@H](O)[C@H]1O` [Phlorizin], the cell viability is reported as 1.01 ± 0.094. In the case of `COc1ccccc1C(=O)Nc1cc2c(cc1N1CCCC1)n(C)c(=O)n2C`, the cell viability is reported as 1.01 ± 0.036. For `C=C[C@]1(C)C[C@@H](OC(=O)CS[C@@H]2C[C@H]3CC[C@@H](C2)N3C)[C@]2(C)[C@H](C)CC[C@]3(CCC(=O)[C@H]32)[C@@H](C)[C@@H]1O` [Retapamulin], the cell viability was 1.02 ± 0.047. `Oc1ncnc2[nH]ncc12` [Allopurinol] was tested, and the cell viability was 0.993 ± 0.062. `CN(N=O)C(=O)NC1C(O)OC(CO)C(O)C1O` (stereo not given) [Streptozotocin (STZ)] showed a cell viability of 0.97 ± 0.06. In the case of `C[N+]1(C)[C@@H]2CC[C@H]1C[C@@H](OC(=O)C(O)c1ccccc1)C2` (stereo not given in full) [Homatropine Methylbromide], the cell viability is reported as 0.971 ± 0.036. In the case of `COC(=O)C1=C(C)NC(C)=C(C(=O)OCCN2CCN(C(c3ccccc3)c3ccccc3)CC2)C1c1cccc([N+](=O)[O-])c1` (stereo not given) [Manidipine 2HCl], the cell viability is reported as 0.986 ± 0.038. `COC(=O)C1=C(C)NC(C)=C(C(=O)OCCN2CCN(C(c3ccccc3)c3ccccc3)CC2)C1c1cccc([N+](=O)[O-])c1` (stereo not given) [Manidipine] showed a cell viability of 0.976 ± 0.031. Molecule `CC(C)N(C[C@H]1O[C@@H](n2cnc3c(N)ncnc32)[C@H](O)[C@@H]1O)[C@H]1C[C@@H](CCc2nc3cc(C(C)(C)C)ccc3[nH]2)C1` has a cell viability of 0.94 ± 0.035. `COC(c1ccccc1)(c1ccccc1)[C@H](Oc1nc(C)cc(C)n1)C(=O)O` [Ambrisentan] showed a cell viability of 1.06 ± 0.055. Molecule `CC(=O)Nc1ccccc1` [Acetanilide] has a cell viability of 0.961 ± 0.041. With `O=C(/C=C/c1ccc2ccccc2n1)c1ccncc1` the cell viability was 1.03 ± 0.025. With `Cc1cc(C(N)=O)ccc1-n1c(CCC(=O)O)ccc1-c1ccc(-n2ccnc2)cc1` the cell viability was 0.998 ± 0.046. In the case of `COC(=O)C[C@H](NC(=O)[C@H](C)NC(=O)[C@@H](NC(=O)OCc1ccccc1)C(C)C)C(=O)CF`, the cell viability is reported as 0.98 ± 0.037. In the case of `CC(C(=O)O)c1ccc2c(c1)Cc1cccnc1O2` (stereo not given) [Pranoprofen], the cell viability is reported as 1.04 ± 0.022. With `O=C(N/N=C/c1cc(O)c(O)cc1O)c1cc2ccccc2cc1O` [Dyngo-4a] the cell viability was 0.833 ± 0.06. `Clc1ccc(NN=C(c2ccccc2)c2ccccn2)nc1` gave a cell viability of 0.319 ± 0.014.
